The values that follow come from PMC9911399, “Two distinct binding modes provide the RNA-binding protein RbFox with extraordinary sequence specificity”.

Residue numbers refer to the chain shown, from its start. The list shows a part of the results.

First the molecules themselves.
B1: CAACGGG (DNA:RNA)
RNA: GGGAGACCGGAAUUCAGAUUGUCCCAACGGGUUAAAUCCCGUCGUAGCCACCA
DNA 1: CAATCTGAATTCCGGTCTCCC
DNA 2: TGGTGGCTACGACGGGATT
B2: UACGUGU (DNA:RNA)
RNA: B1 RNA with C25U, A27C, C28G, G29U, G31U
DNA 1: CAATCTGAATTCCGGTCTCCC
DNA 2: TGGTGGCTACGACGGGATT
B3: UAGAACU (DNA:RNA)
RNA: B1 RNA with C25U, A27G, C28A, G29A, G30C, G31U
DNA 1: CAATCTGAATTCCGGTCTCCC
DNA 2: TGGTGGCTACGACGGGATT
B4: UCGUGCU (DNA:RNA)
RNA: B1 RNA with C25U, A26C, A27G, C28U, G30C, G31U
DNA 1: CAATCTGAATTCCGGTCTCCC
DNA 2: TGGTGGCTACGACGGGATT
B5: GGAAGAG (DNA:RNA)
RNA: B1 RNA with C25G, A26G, C28A, G30A
DNA 1: CAATCTGAATTCCGGTCTCCC
DNA 2: TGGTGGCTACGACGGGATT
B6: UGCCUAA (DNA:RNA)
RNA: B1 RNA with C25U, A26G, A27C, G29U, G30A, G31A
DNA 1: CAATCTGAATTCCGGTCTCCC
DNA 2: TGGTGGCTACGACGGGATT
B7: AGGCUUG (DNA:RNA)
RNA: B1 RNA with C25A, A26G, A27G, G29U, G30U
DNA 1: CAATCTGAATTCCGGTCTCCC
DNA 2: TGGTGGCTACGACGGGATT
B8: UUCGGCG (DNA:RNA)
RNA: B1 RNA with C25U, A26U, A27C, C28G, G30C
DNA 1: CAATCTGAATTCCGGTCTCCC
DNA 2: TGGTGGCTACGACGGGATT
B9: GAGUUUC (DNA:RNA)
RNA: B1 RNA with C25G, A27G, C28U, G29U, G30U, G31C
DNA 1: CAATCTGAATTCCGGTCTCCC
DNA 2: TGGTGGCTACGACGGGATT
B10: ACAGCGC (DNA:RNA)
RNA: B1 RNA with C25A, A26C, C28G, G29C, G31C
DNA 1: CAATCTGAATTCCGGTCTCCC
DNA 2: TGGTGGCTACGACGGGATT
B11: GUGAGCG (DNA:RNA)
RNA: B1 RNA with C25G, A26U, A27G, C28A, G30C
DNA 1: CAATCTGAATTCCGGTCTCCC
DNA 2: TGGTGGCTACGACGGGATT
B12: UACGACC (DNA:RNA)
RNA: B1 RNA with C25U, A27C, C28G, G29A, G30C, G31C
DNA 1: CAATCTGAATTCCGGTCTCCC
DNA 2: TGGTGGCTACGACGGGATT
B13: CUCGUAC (DNA:RNA)
RNA: B1 RNA with A26U, A27C, C28G, G29U, G30A, G31C
DNA 1: CAATCTGAATTCCGGTCTCCC
DNA 2: TGGTGGCTACGACGGGATT
B14: AGCGUGA (DNA:RNA)
RNA: B1 RNA with C25A, A26G, A27C, C28G, G29U, G31A
DNA 1: CAATCTGAATTCCGGTCTCCC
DNA 2: TGGTGGCTACGACGGGATT
B15: AUUUCAU (DNA:RNA)
RNA: GGGAGACCGGAAUUCAGAUUGUCCAUUUCAUUUAAAUCCCGUCGUAGCCACCA
DNA 1: CAATCTGAATTCCGGTCTCCC
DNA 2: TGGTGGCTACGACGGGATT
B16: AGGUGCA (DNA:RNA)
RNA: B15 RNA with U26G, U27G, C29G, A30C, U31A
DNA 1: CAATCTGAATTCCGGTCTCCC
DNA 2: TGGTGGCTACGACGGGATT
B17: UGUGAAC (DNA:RNA)
RNA: B15 RNA with A25U, U26G, U28G, C29A, U31C
DNA 1: CAATCTGAATTCCGGTCTCCC
DNA 2: TGGTGGCTACGACGGGATT
B18: CGGCUUG (DNA:RNA)
RNA: B1 RNA with A26G, A27G, G29U, G30U
DNA 1: CAATCTGAATTCCGGTCTCCC
DNA 2: TGGTGGCTACGACGGGATT
B19: CGUUUCG (DNA:RNA)
RNA: B15 RNA with A25C, U26G, C29U, A30C, U31G
DNA 1: CAATCTGAATTCCGGTCTCCC
DNA 2: TGGTGGCTACGACGGGATT
B20: GCCUGGC (DNA:RNA)
RNA: B1 RNA with C25G, A26C, A27C, C28U, G31C
DNA 1: CAATCTGAATTCCGGTCTCCC
DNA 2: TGGTGGCTACGACGGGATT
B21: UCGGACU (DNA:RNA)
RNA: B15 RNA with A25U, U26C, U27G, U28G, C29A, A30C
DNA 1: CAATCTGAATTCCGGTCTCCC
DNA 2: TGGTGGCTACGACGGGATT
B22: UCGUCAU (DNA:RNA)
RNA: B15 RNA with A25U, U26C, U27G
DNA 1: CAATCTGAATTCCGGTCTCCC
DNA 2: TGGTGGCTACGACGGGATT
B23: AAUGCUA (DNA:RNA)
RNA: B15 RNA with U26A, U28G, A30U, U31A
DNA 1: CAATCTGAATTCCGGTCTCCC
DNA 2: TGGTGGCTACGACGGGATT
B24: AUAUAAG (DNA:RNA)
RNA: B15 RNA with U27A, C29A, U31G
DNA 1: CAATCTGAATTCCGGTCTCCC
DNA 2: TGGTGGCTACGACGGGATT
B25: GGUAGAA (DNA:RNA)
RNA: B15 RNA with A25G, U26G, U28A, C29G, U31A
DNA 1: CAATCTGAATTCCGGTCTCCC
DNA 2: TGGTGGCTACGACGGGATT
B26: CAUAGAC (DNA:RNA)
RNA: B1 RNA with A27U, C28A, G30A, G31C
DNA 1: CAATCTGAATTCCGGTCTCCC
DNA 2: TGGTGGCTACGACGGGATT
B27: CAUAUGU (DNA:RNA)
RNA: B1 RNA with A27U, C28A, G29U, G31U
DNA 1: CAATCTGAATTCCGGTCTCCC
DNA 2: TGGTGGCTACGACGGGATT
B28: AAAUCAU (DNA:RNA)
RNA: B15 RNA with U26A, U27A
DNA 1: CAATCTGAATTCCGGTCTCCC
DNA 2: TGGTGGCTACGACGGGATT
B29: GUGGCGA (DNA:RNA)
RNA: B15 RNA with A25G, U27G, U28G, A30G, U31A
DNA 1: CAATCTGAATTCCGGTCTCCC
DNA 2: TGGTGGCTACGACGGGATT
B30: AGGUUAC (DNA:RNA)
RNA: B15 RNA with U26G, U27G, C29U, U31C
DNA 1: CAATCTGAATTCCGGTCTCCC
DNA 2: TGGTGGCTACGACGGGATT
B31: UAUACCA (DNA:RNA)
RNA: B15 RNA with A25U, U26A, U28A, A30C, U31A
DNA 1: CAATCTGAATTCCGGTCTCCC
DNA 2: TGGTGGCTACGACGGGATT

In the assay the target is T1, RBFOX1 RRM RbFoxmut (Fox-RRM*) (Homo sapiens, UniProt Q9NWB1 109-208, R118D;E147R;N151S;E152T).
T1 sequence: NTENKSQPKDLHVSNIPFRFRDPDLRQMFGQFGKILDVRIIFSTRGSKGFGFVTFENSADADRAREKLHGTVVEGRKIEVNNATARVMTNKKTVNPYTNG
The experiment in a line: EMSA; HiTS-Eq, 1 nM pool, 10 min; buffer printed only for the single-RNA assays: 10 mM Tris pH 7.5, 150 mM NaCl, 3.4 mM EDTA, 0.001% NP-40, 30 C. The following applies: tags: His6 N-terminal (pET28a); label: 5' 32P. Summed up:
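A pool of RNA with 7 randomized nucleotides, 5′-radiolabelled and with DNA-annealed flanks, was equilibrated at 1 nM for 10 min in 50 µL with purified RbFox RRM, wild type or mutant, across increasing protein concentrations. Free RNA was separated by 8% native PAGE, excised, reverse-transcribed, barcoded by PCR and sequenced. Relative association constants were obtained from read-count changes of each RNA species versus the control reaction and normalised to the cognate motif.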
For orientation: A gel shift assay detects complexes by their altered migration in electrophoresis.
Take B1: the binding signal is 0.0494 KA relative to UGCAUGU.

Take B2: the binding signal was 0.126 KA relative to UGCAUGU.

For B3, the binding signal was 0.0733 KA relative to UGCAUGU.

For the molecule B4, the binding signal is 0.0892 KA relative to UGCAUGU.

In the case of B5, the binding signal was 0.0746 KA relative to UGCAUGU.

For B6, the binding signal was 0.0802 KA relative to UGCAUGU.

As to B7, the binding signal was 0.388 KA relative to UGCAUGU.

On to B8, for which the binding signal is 0.116 KA relative to UGCAUGU.

Take B9: the binding signal was 0.092 KA relative to UGCAUGU.

Turning to B10, the binding signal is 0.0911 KA relative to UGCAUGU.

B11: the binding signal is 0.195 KA relative to UGCAUGU.

For B12, the binding signal is 0.0802 KA relative to UGCAUGU.

For the molecule B13, the binding signal was 0.13 KA relative to UGCAUGU.

With B14, the binding signal is 0.106 KA relative to UGCAUGU.

For B15, the binding signal was 0.12 KA relative to UGCAUGU.

In the case of B16, the binding signal was 0.21 KA relative to UGCAUGU.

Consider B17, for which the binding signal is 0.112 KA relative to UGCAUGU.

Regarding B18, the binding signal is 0.431 KA relative to UGCAUGU.

With B19, the binding signal was 0.17 KA relative to UGCAUGU.

In the case of B20, the binding signal is 0.161 KA relative to UGCAUGU.

B21: the binding signal is 0.0516 KA relative to UGCAUGU.

Turning to B22, the binding signal was 0.0967 KA relative to UGCAUGU.

Turning to B23, the binding signal was 0.115 KA relative to UGCAUGU.

Consider B24, for which the binding signal is 0.155 KA relative to UGCAUGU.

As to B25, the binding signal is 0.0914 KA relative to UGCAUGU.

Consider B26, for which the binding signal was 0.0851 KA relative to UGCAUGU.

Turning to B27, the binding signal was 0.149 KA relative to UGCAUGU.

Take B28: the binding signal is 0.08 KA relative to UGCAUGU.

Take B29: the binding signal is 0.116 KA relative to UGCAUGU.

As to B30, the binding signal is 0.104 KA relative to UGCAUGU.

Regarding B31, the binding signal was 0.0844 KA relative to UGCAUGU.
